# Measurements published in PubChem BioAssay AID485344 (National Center for Advancing Translational Sciences (NCATS), 2010).
# Hit rate of the full screen: of about 340,000 compounds, about 6,900 (2%) were called active. No stated cut-off is given here; in the data, active means inhibition above about 30%; inactive means below that, where a call was filed. This is a selection; strong and weak results do not stand in their true shares. The source gives no active or inactive call for entries shown without one.
# Target: D(2) dopamine receptor (Homo sapiens) (UniProt P14416)
# Sequence of UniProt P14416 (P14416 whole entry, looked up): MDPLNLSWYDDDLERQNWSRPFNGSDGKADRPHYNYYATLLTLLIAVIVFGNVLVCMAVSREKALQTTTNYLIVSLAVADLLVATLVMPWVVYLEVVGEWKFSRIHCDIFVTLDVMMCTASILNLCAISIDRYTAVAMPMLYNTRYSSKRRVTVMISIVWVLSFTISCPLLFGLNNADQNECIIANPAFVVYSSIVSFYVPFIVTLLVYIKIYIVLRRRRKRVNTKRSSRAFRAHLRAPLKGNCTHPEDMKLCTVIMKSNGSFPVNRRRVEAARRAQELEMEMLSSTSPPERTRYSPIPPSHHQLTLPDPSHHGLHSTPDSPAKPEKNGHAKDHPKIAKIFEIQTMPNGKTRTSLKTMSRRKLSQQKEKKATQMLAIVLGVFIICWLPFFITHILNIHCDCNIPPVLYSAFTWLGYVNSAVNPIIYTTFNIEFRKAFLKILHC
# Assay: HTS Assay for Allosteric Antagonists of the Human D2 Dopamine Receptor: Primary Screen for Antagonists; further: 0% is about no effect
# Conditions: HEK293 TREx D2 cells, calcium flux, dopamine EC80; at 10 µM; stronger effect = higher value
# Method in brief: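 Read-out: kinetic calcium fluorescence (1 cycle/s) in inducible HEK293 T-REx D2 cells after an EC80 dopamine addition that followed 180 s compound preincubation. Loss of the dopamine response indicates antagonism.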
row,SMILES,inhibition
1,CCc1ccc(N(CC)C(=O)c2cn(C)c(=O)c3cc(OC)c(OC)cc23)cc1,-6.3%
2,Cc1ccc(-n2ncc3c(NC4CCCCC4)ncnc32)cc1C,21.4%
3,CCOC(=O)C1(Cc2ccccc2C(F)(F)F)CCN(C2CCC2)CC1,active: 32.1%
4,CSc1ccc(CCNC(=O)Cn2ncc3c([nH]c4ccccc43)c2=O)cc1,0.782%
5,CCOC(=O)c1cc2c(=O)n3ccccc3nc2n(CCOC)c1=NC(=O)c1c(-c2c(F)cccc2Cl)noc1C,7.91%
6,O=C(c1ccccc1)n1nc(-c2ccc(Cl)cc2)nc1NCc1ccco1,-4.75%
7,CC(C)(C)c1cc(C(=O)N/N=C/c2cc3c(cc2Br)OCO3)n[nH]1,active: 49.5%
8,Cc1cccc(NC(=O)CN2C(=O)C(c3ccc(F)cc3)=NC23CCCCCC3)c1C,-0.24%
9,Cc1cc2c(cc1S(=O)(=O)NCc1ccc(F)cc1)OCC(=O)N2,10.2%
10,COc1ccc(NC(=O)CN2C(=O)COc3ccc(S(=O)(=O)NC4CCCC4)cc32)cc1OC,-6.62%
11,CC(C)Oc1ccc(S(=O)(=O)N2CCCCC2)cc1NC(=O)CN1CCCC1c1cccs1 (stereo not drawn),active: 33%
12,COc1ccc(OCC(=O)N2CCN(C(=O)c3ccc(OC)c(OC)c3)CC2)cc1,-5.73%
13,COc1cn(CC(=O)Nc2ccc(C)cc2)c(CN2CCCCC2)cc1=O,-28.5%
14,Cc1cccc(C)c1NC(=O)CCSCCc1ccccn1,-2.44%
15,CC(=O)N1CCc2cc(Br)cc(S(=O)(=O)CCC(=O)NCc3ccc(F)cc3)c21,-11.1%
16,O=C(CCNS(=O)(=O)c1ccc2c(c1)CCN2C(=O)C1CC1)Nc1ccc(Cl)cc1,-2.43%
17,Cc1c(NS(=O)(=O)c2ccc(C(C)(C)C)cc2)c(=O)n(-c2ccccc2)n1C,0.9%
18,Cc1ccc2occ(CC(=O)Nc3c(C)cccc3C)c2c1,21.7%
19,Cc1cc(C)cc(NCc2nnc3n2CCCCC3)c1,-4.05%
20,CCCN(C(=O)c1ccc2c(=O)n3c(nc2c1)CCCCC3)c1cccc(Cl)c1,-3.65%
21,O=C(NCCc1nc2ccccc2n1Cc1ccc(Cl)cc1)c1ccccc1,-3.06%
22,CCOC(=O)c1ccccc1NC(=O)c1sc2nc(-c3ccc(F)cc3)cn2c1C,-26.2%
23,Cc1nnc(NC(=O)CSc2nc3c([nH]c4ccccc43)c(=O)n2-c2cccc(Cl)c2)s1,10.9%
24,COc1ccc(C)cc1NC(=O)NCCn1nnc2cc(S(=O)(=O)N(C)C)ccc21,5.45%
25,Cc1ccc(C(=O)OCc2cc(=O)n3nc(CC(C)C)sc3n2)cc1,-23.3%

row,SMILES,inhibition
1,COc1ccc(CCNC(=O)c2cnc3sc(N4CCCCCC4)nn3c2=O)cc1,4.32%
2,CCC1CN(C(=O)N2CCC(C(=O)NCc3cccs3)CC2)c2ccccc2O1 (stereo not drawn),5.99%
3,Cc1ccc(N2C(=O)CSC23C(=O)N(CC(=O)NCCc2ccccc2)c2ccccc23)cc1 (stereo not drawn),-3.62%
4,Cc1ccc(NC(=O)c2ccc(-c3ccccc3)s2)cc1,3.48%
5,COc1cccc(CNCc2c(C(=O)O)n(Cc3ccc(C)cc3)c3cc(C)ccc23)c1OC,-8.31%
6,O=C(Nc1ccc2oc(-c3ccc(Br)cc3)nc2c1)c1cc2ccccc2o1,-5.89%
7,CCC1CCCCN1CCCNC(=O)c1ccc2c(c1)N(Cc1cccc(Cl)c1)C(=O)c1ccccc1S2(=O)=O (stereo not drawn),-2.42%
8,CC(=O)c1ccc(NC(=O)c2sc(-n3nc(C)c(Cc4ccc5c(c4)OCO5)c3C)nc2C)cc1,16.8%
9,COc1ccc(Cl)cc1NC(=O)CSc1nnc(COc2ccccc2)n1N,active: 53.7%
10,O=c1oc2c(CN3CCOCC3)c(O)ccc2cc1-c1ccccc1,-5.68%
11,COc1ccc(N2CCN(C(=O)c3noc4c3CCCCC4)CC2)cc1,1.5%
12,COc1ccc(C2CC(=O)Nc3c2c(C)nn3-c2nc(C)cc(C)n2)c(OC)c1OC (stereo not drawn),4.17%
13,COC(=O)c1c(NC(=O)COc2ccc(C(C)C)cc2)sc2c1CCCC2,11%
14,CCc1cccc(NC(=O)CCn2nc(C)cc2C)c1,-13.5%
15,COc1ccccc1CCNC(=O)C1(c2cccs2)CCOCC1,-15.4%
16,Cc1cccc(CSc2nc3ccncc3n2CC(=O)N(C)C2CCCCC2)c1,3%
17,CCCS(=O)(=O)Nc1cccc(-c2cn3ccsc3n2)c1,6.88%
18,COc1ccc(NC(=O)Cn2c(=O)oc3cc(S(=O)(=O)N4CCCC4)ccc32)cc1OC,4.29%
19,COc1ccc(CCNC(=O)c2ccc3nc(CCc4ccccc4)oc3c2)cc1OC,-7.94%
20,COc1ccc(NC(=O)Cn2cnc3c(nc4n3CCCCC4)c2=O)cc1Cl,4.64%
21,COc1ccc(OC)c(NC(=O)c2nnn(CC(=O)Nc3ccc(C(C)C)cc3)c2N)c1,7.33%
22,Cc1cccc(N2CCN(C(=O)Cc3c(C(=O)O)c(C)cn3C)CC2C)c1 (stereo not drawn),3.89%
23,COc1cc(CN2CCN(c3cccc(C)c3C)CC2)cc(OC)c1O,active: 41.6%
24,COc1ccc(N2CCN(C(=O)C3CCCN(S(=O)(=O)c4ccc5c(c4)oc(=O)n5C)C3)CC2)cc1 (stereo not drawn),-5.4%
25,O=C(COc1ccc(Br)cc1Cl)NC1CCN(Cc2ccccc2)CC1,active: 67%

row,SMILES,inhibition
1,COc1ccc(C2C(C(=O)NCc3ccco3)CCC(=O)N2c2ccc(OC)cc2)cc1 (stereo not drawn),active: 38.3%
2,CC(C)c1ccc(CNCCSc2nnnn2-c2ccccc2)cc1,20.4%
3,CCNC(=O)C1CCCN(c2nn3cc(-c4ccc(C)cc4)nc3s2)C1 (stereo not drawn),-1.88%
4,Cc1ccc(C)c(NS(=O)(=O)c2ccc(OCC(=O)NCc3cccnc3)cc2)c1,active: 42.3%
5,CCC(C)S(=O)(=O)c1oc(-c2ccc(F)cc2)nc1S(=O)(=O)c1ccc(F)cc1 (stereo not drawn),-8.47%
6,Cc1cc(C)cc(NC(=O)C2CCN(c3nc4ccccc4nc3C(F)(F)F)CC2)c1,1.99%
7,CCOc1ccc(-n2nc3ccc(NC(=O)COc4ccccc4)cc3n2)cc1,-7.78%
8,O=C(N/N=C/c1cccs1)c1c[nH]c2ccccc12,active: 32.7%
9,Cc1ccc(OCCCCn2nnc3sc4c(c3c2=O)CCC(C)C4)cc1 (stereo not drawn),-6.55%
10,CCn1c(=N)c(C(=O)NC2CCCC2)cc2c(=O)n3cc(C)ccc3nc21,-22.2%
11,CCOC(=O)c1c(-c2ccccc2)oc2cc(Br)c(OCc3ccccc3)cc12,-7.45%
12,CCOc1ccc(C(=O)NCCc2csc(-c3cccnc3)n2)cc1,6.88%
13,CN1CCN(C2(CNC(=O)COc3ccc(C(C)(C)C)cc3)CCCCC2)CC1,1.35%
14,Cc1ccc(Cl)cc1Nc1nn2c(=O)c3ccc(C(=O)NC4CCC(C)CC4)cc3nc2s1 (stereo not drawn),-2.77%
15,O=C(Cn1c(=O)n(-c2ccc(F)c(Cl)c2)c(=O)c2sc3ccccc3c21)NC1CCCCC1,17.2%
16,COc1cccc(NC(=O)C2CCN(S(=O)(=O)c3c(C)noc3/C=C/c3cccs3)CC2)c1,2.66%
17,CCN1CCN(c2cc(C)c3cc(NC(=O)/C=C/c4ccc(OCCC(C)C)cc4)ccc3n2)CC1,2.45%
18,Cc1ccc(NC(=O)CSc2nc(C3CCCC3)nc3c2c(=O)n(C)c(=O)n3C)c(C)c1,-1.21%
19,O=C(CSc1nccn1-c1ccc(F)cc1)Nc1cccc2ccccc12,12.7%
20,COc1ccc(C(=O)Nc2cc(NC(=O)c3ccco3)ccc2OC)cc1Cl,-1.2%
21,CCc1nnc(SCc2nc(-c3cccc(C)c3)oc2C)c2cc3sc(C)cc3n12,2.59%
22,CC(=O)c1ccc(S(=O)(=O)N2CCn3cccc3C2c2ccc(F)c(F)c2)cc1 (stereo not drawn),-6.45%
23,CCc1cc(C(=O)NCc2ccc(F)cc2)no1,-25.4%
24,COc1ccc(CNc2ncnc3c2c(-c2ccccc2)cn3-c2cccc(C)c2)cc1,-20.9%
25,CC(C)Oc1ccc(CNC(=O)c2ccc3c(c2)N(C)C(=O)C2CCCCN32)cc1 (stereo not drawn),-3.84%

row,SMILES,inhibition
1,NC(=O)c1nsc(C(=O)N(CCCN2CCOCC2)C(C(=O)NC2CCCCC2)c2ccc(Cl)cc2)c1N (stereo not drawn),active: 30.5%
2,Cc1ccc(N2CC(NC(=O)C3CCCC3)CC2=O)cc1C (stereo not drawn),5.27%
3,COc1ccc(-c2nnc(SCC(=O)Oc3cc(C)ccc3C)o2)cc1,-21.4%
4,CSCCC(NC(=O)OC(C)(C)C)C(=O)Oc1ccc2c(=O)c(-c3ccc4c(c3)OCCO4)coc2c1 (stereo not drawn),active: 32.8%
5,CCOC(=O)c1cc2c(=O)n3ccccc3nc2n(CC2CCCO2)c1=NC(=O)c1ccc(F)cc1 (stereo not drawn),-1.24%
6,O=C(NCc1cccc(F)c1)c1ccc2nc(CCc3ccccc3)oc2c1,22.8%
7,CCOC(=O)N1CCc2c(sc(NCc3cccc(F)c3)c2C(=O)Nc2ccc(OCC)cc2)C1,8.59%
8,CSc1cccc(CN2CCN(CCC(C)C)C(CCO)C2)c1 (stereo not drawn),active: 58.8%
9,CCN(C(=O)c1cccn(Cc2cccc(Cl)c2)c1=O)c1ccccc1,17.9%
10,Cc1ccc(-c2nc(Cn3c(SCc4ccc(F)cc4)nc4cccnc43)c(C)o2)cc1,1.11%
11,COc1ccc(C(=O)Nc2nonc2-c2ccc(OC)c(OC)c2)cc1Cl,-13.8%
12,O=C(Nc1cccc(NC(=O)c2ccc(Br)cc2)c1)c1ccccc1,-11.5%
13,CCCn1c(NCc2ccccc2F)nc2ccccc21,-4.94%
14,CCCn1c2ccccc2c2cnn(CC(=O)NCCCN3CCN(c4ccccc4)CC3)c(=O)c21,active: 87.5%
15,COc1ccc2c(c1)CC(NC(=O)Nc1ccc(Br)c(C)c1)CO2 (stereo not drawn),-0.25%
16,CCC(=O)N1c2ccc(S(=O)(=O)CCC(=O)N3CCN(c4ccc(F)cc4)CC3)cc2CC1C (stereo not drawn),9.24%
17,Cc1ccc(OCc2cc(=O)n3cc(C)sc3n2)c(NC(=O)c2ccco2)c1,3.98%
18,O=C(Oc1ccc(Br)cc1)c1cccnc1,active: 38.5%
19,Cc1ccc(C)c(NC(=O)Cn2cc(S(=O)(=O)NC(C)C)c(S(=O)(=O)NC(C)C)c2)c1,-1.03%
20,COc1cc(C(=O)Nc2c(C(=O)Nc3ccccc3F)oc3ccccc23)cc(OC)c1OC,16%
21,CCOc1ccc(NC(=O)c2ccc3nc(C(C)C)oc3c2)cc1,-11.4%
22,CC(C)OCCCn1c(=S)[nH]c2cc3c(cc2c1=O)OCO3,active: 49.5%
23,COc1ccc(Cn2c(C(=O)O)c(CNCc3ccc(C)o3)c3ccc(OC)cc32)cc1,7.02%
